Data as given in PMC4336329 (PLoS ONE, 2015).
The campaign covered roughly 310,000 compounds. About 2,200 (0.71%) showed an effect of 50% or more. Effects have a minus sign here. The list shows a part of the results.

target: human ether-à-go-go-related gene (hERG) potassium channel (human, UniProt Q12809); assay: primary screen, population patch clamp on CHO cells stably expressing hERG
Sequence (Q12809 whole entry, looked up): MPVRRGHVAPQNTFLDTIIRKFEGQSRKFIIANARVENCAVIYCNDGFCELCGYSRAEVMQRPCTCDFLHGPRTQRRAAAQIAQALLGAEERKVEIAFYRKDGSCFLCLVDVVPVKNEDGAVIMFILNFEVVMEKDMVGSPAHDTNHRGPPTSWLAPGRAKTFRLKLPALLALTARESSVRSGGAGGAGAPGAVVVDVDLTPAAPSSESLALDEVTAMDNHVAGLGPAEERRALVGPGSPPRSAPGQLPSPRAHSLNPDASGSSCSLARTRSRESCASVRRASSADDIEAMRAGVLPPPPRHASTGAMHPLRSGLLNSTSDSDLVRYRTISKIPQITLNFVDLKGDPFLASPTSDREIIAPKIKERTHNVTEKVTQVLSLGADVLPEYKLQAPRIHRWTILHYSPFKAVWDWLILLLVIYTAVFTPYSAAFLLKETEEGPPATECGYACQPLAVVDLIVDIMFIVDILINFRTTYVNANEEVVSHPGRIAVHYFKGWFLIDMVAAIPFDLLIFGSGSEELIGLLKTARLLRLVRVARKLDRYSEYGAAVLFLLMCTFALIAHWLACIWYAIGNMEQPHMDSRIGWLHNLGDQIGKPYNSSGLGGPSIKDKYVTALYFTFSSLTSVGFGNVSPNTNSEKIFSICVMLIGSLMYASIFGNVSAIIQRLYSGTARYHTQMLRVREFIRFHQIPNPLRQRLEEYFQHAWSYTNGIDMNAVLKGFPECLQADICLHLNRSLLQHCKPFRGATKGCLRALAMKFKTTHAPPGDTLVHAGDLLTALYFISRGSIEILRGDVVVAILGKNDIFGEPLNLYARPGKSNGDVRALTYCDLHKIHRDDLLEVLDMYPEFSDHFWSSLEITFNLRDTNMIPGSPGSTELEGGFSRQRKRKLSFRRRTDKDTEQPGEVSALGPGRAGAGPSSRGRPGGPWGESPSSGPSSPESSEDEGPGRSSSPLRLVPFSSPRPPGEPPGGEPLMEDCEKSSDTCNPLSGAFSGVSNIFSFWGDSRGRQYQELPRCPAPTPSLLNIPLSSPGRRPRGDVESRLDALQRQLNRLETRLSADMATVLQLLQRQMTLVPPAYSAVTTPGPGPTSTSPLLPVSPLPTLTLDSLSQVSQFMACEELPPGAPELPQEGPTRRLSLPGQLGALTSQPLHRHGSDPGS

SMILES	hERG current change (%, negative = inhibition) at 1uM
COc1ccc(NC(C)=O)cc1NC(C)C(=O)Nc1ccc(F)cc1 (centres unmarked)	12.5%
COc1ccc(OC)c(S(=O)(=O)N2CCN(c3ccccn3)CC2)c1	7.33%
Cl.O=C(c1cc(F)c(F)c(F)c1F)N1CCN(Cc2ccc3c(c2)OCO3)CC1	9.54%
COc1cc(CNCCO)cc(Cl)c1OCc1ccccc1Cl.Cl	6.13%
CCC(C)(C(=O)NC1CCCC1)N(C(=O)c1ccccn1)c1ccccc1 (centres unmarked)	-3.01%
COc1ccc(-c2noc(-c3ccc(C)cc3)n2)cc1	21.6%
CCCCN(CC)CCCNC(=O)c1cc2c(=O)n(CC)c3ccccc3c2s1	-2.19%
CC(CCN1CCN(CCO)CC1)c1ccccc1 (centres unmarked)	9.6%
CSc1nsc(SC)c1C(=O)NCCNS(=O)(=O)c1ccc(C)cc1	3.27%
O=C(O)CCC(=O)N1N=C(c2c(-c3ccccc3)c3cc(Cl)ccc3[nH]c2=O)CC1c1ccccc1 (centres unmarked)	6.97%
CCc1ccccc1NC(=O)C1CCN(C(=O)N2CCOc3ccccc32)CC1	8.6%
Cc1ncc2c(c1OC(=O)c1ccc([N+](=O)[O-])cc1)COC(C)(C)OC2	-42%
COCCCNC(=S)NCCNc1nc2cc(C)cc(C)c2cc1C#N	7.95%
Cc1nc(C(=O)Nc2ccccc2Cl)cc2c1[nH]c1ccccc12	10.3%
CCCC(CCC(=O)Nc1cc([N+](=O)[O-])ccc1O)C(=O)O (centres unmarked)	11.2%
O=C(CN(Cc1ccccc1)S(=O)(=O)c1ccc(Br)cc1)N/N=C/c1ccccc1C(=O)O	10.5%
COc1ccccc1NC(=O)c1sc2ncn(Cc3cccc(C)c3)c(=O)c2c1C	-0.2%
Cc1ccc(S(=O)(=O)N2CCN(Cc3nc4sc(C)c(C)c4c(=O)[nH]3)CC2)cc1	19.1%
Nc1c(C(=O)N2CCCC2)sc2nc3c(cc12)CCCCCC3	5.16%

SMILES	hERG current change (%, negative = inhibition) at 1uM
CC(C)CCNC(=O)c1onc(CSc2ccccn2)c1C(=O)NCCC(C)C	11.1%
CSCC[C@H](NC(=O)c1cccs1)c1nnc2ccccn12	5.64%
O=C(CSc1nc2ccccc2c(=O)n1-c1ccc(Cl)cc1)c1ccco1	7.3%
Cc1onc(-c2c(Cl)cccc2Cl)c1NC(=O)NC1CCSC1 (centres unmarked)	18.5%
O=C(NC1CCCCC1)C(c1ccccn1)N(C(=O)c1csnn1)C1CC1 (centres unmarked)	12.3%
CCOc1cc(C(=S)N2CCOCC2)ccc1OS(=O)(=O)c1ccc(C)cc1	15.3%
CC(=O)c1ccc(Nc2cc(C)nc3c(C)cccc23)cc1	0.497%
CCOC(=O)c1c(C)n(OCc2ccccc2)c2ccc3nonc3c12	9.48%
Cc1ccc(Nc2ccc([N+](=O)[O-])cn2)cc1Cl	9.08%
CCOC(=O)c1sc(NC(=O)c2ccc(S(=O)(=O)N3CCOCC3)cc2)cc1C	5.83%
COc1cccc(OC)c1C(=O)NC(=S)Nc1cccc(NC(=O)c2ccco2)c1	16.4%
CCC12C=CCN3CCC4(c5cc(Br)c(OC)cc5N(C)C4C(O)(C(=O)OC)C1OC(C)=O)C32 (centres unmarked)	8.22%
COc1cc(/C=N/N(CCO)C2=NS(=O)(=O)c3ccccc32)cc(OC)c1OC	8.78%
O=C(c1ccco1)N1CCN(S(=O)(=O)c2ccc3c(c2)CCN3C(=O)C2CCC2)CC1	11.7%
CCOc1ccc(CCNC(=O)CN2C(=O)NC(CCSC)C2=O)cc1OCC (centres unmarked)	10.6%
O=S(=O)(NC1CCCCC1)c1ccc(N2CCOCC2)nc1	9.26%
Cc1ccc(C(=O)c2sc3nc4c(cc3c2N)CCC4)cc1	-0.546%
COc1ccc(CCNC(=O)c2nnn(CC(=O)Nc3cccc(F)c3)c2N)cc1OC	9.38%
COc1cccc(-n2c(-c3ccoc3)nc3ccccc3c2=O)c1	-7.27%

SMILES	hERG current change (%, negative = inhibition) at 1uM
CC(=O)N/C(=C\c1ccccc1Cl)C(=O)O	14%
Cc1cccc(C)c1OCC(O)CN1CCN(c2ccccc2)CC1.Cl (centres unmarked)	-13.5%
Cc1nc2cc(NCc3cccs3)ccc2n1C	-7.17%
CC(C)OCCCNS(=O)(=O)c1ccc2c(c1)OCCO2	7.24%
Cc1nc2cc(-c3cccc(F)c3)nn2c(C)c1CCC(=O)N1CCN(c2ccccn2)CC1	5.93%
CCOc1ccc(NC(=S)N(CCOC)C2CCN(C(C)C)CC2)cc1	3.44%
Cc1cccc(NC(=O)CN2C(=S)NC(C)(C)CC2C)c1 (centres unmarked)	7.29%
O=c1[nH]c(=S)n(CCC2=CCCCC2)c(O)c1C=NCc1cccnc1	-4.07%
CCOC(=O)c1c(C)nn(Cc2ccccc2)c1N	8.84%
O=C(Nc1ccc(N2CCOCC2)c(Cl)c1)c1ccc(Cl)cc1	-1.03%
COCCn1c(SCC(=O)Nc2cccc(F)c2)nc2c([nH]c3ccccc32)c1=O	21.8%
Cc1ccc(-n2c(-c3ccccc3)cc(/C=N/NC(=O)CC#N)c2-c2ccccc2)cc1	7.93%
CCCC(=O)Nc1ccccc1N1CCN(C(=O)C(C)C)CC1	7.84%
COc1ccc(NC(C)=O)cc1NC(=O)CN1CCN(CC(=O)Nc2ccc(Cl)cc2)CC1	-34.7%
Cc1ccc(C(=O)COC(=O)c2ccco2)cc1C	10.4%
Cc1ccc(N2C(=O)CC3(CCCC3)CC2=O)cc1	11.5%
Nc1nc(-c2ccco2)nc(N2CCCCC2)n1	-1.74%
COc1cc2c(cc1OC)C(c1ccccc1OC(C)C)CC(=O)N2 (centres unmarked)	9.37%
